Source: a collection of fitness landscapes (doi:10.1016/j.celrep.2020.107928)
Whole data set: some 81,000 sequences, median “one-hybrid fitness for binding NBS DNA” near -0.1, cut for the highest 2% near 0.36. The list shows a part of the results.

B1: Caulobacter ParB omega fusion; a variant is named by its letters at X, in order, B8GW30 (parent)
chain: MESVVVGEPGMSEGRRGLGRGLSALLGEVDAAPAQAPGEQLGGSREAPIEILQRNPDQPRRTFREEDLEDLSNSIREKGVLQPILVRPSPDTAGEYQIVAGERAWRAAQRAGLKTVPIMVRELDDLAVLEIGIIENVQRADLNVLEEALSYKVLMEKFERTQENIAQTIGKSXSHVANXMRLLXLPDEVQSYLVSGELTAXHARAIAAAADPVALAKQIIEGGLSVRETEALARKAPNLSAGKSKGGRPPRVKDTDTQALESDLSSVLGLDVSIDHRGSTGTLTITYATLEQLDDLCNRLTRGI

Variants of: B1
Assay: one-hybrid fitness for binding NBS DNA (the Noc-binding site; scaled: cognate 1, non-cognate 0); higher = stronger binding
Conditions: with NBS DNA site
Method in brief: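 Selection: bacterial one-hybrid in E. coli USO, HIS3 reporter with the site 19 bp from the promoter, 48 hours at 37°C on M9-minus-histidine plus 0.1 mM IPTG and 5 mM 3-AT. Libraries were Caulobacter ParB with four randomised specificity codons, sequenced on Illumina before and after selection. Fitness is the rescaled log change in variant-to-wild-type read ratio, anchored to the cognate and non-cognate sites.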

Variant	one-hybrid fitness for binding NBS DNA
KNWG	≤ 0.2
RHYW	≤ 0.2
ILFW	≤ 0.2
DTLN	≤ 0.2
VMTN	≤ 0.2
LRYG	≤ 0.2
GWPG	≤ 0.2
PHDI	≤ 0.2
QTND	0.227
KPYI	≤ 0.2
KPGC	≤ 0.2
HVTR	≤ 0.2
QHRQ	0.33
YVGY	≤ 0.2
PVLP	≤ 0.2
AHST	≤ 0.2
HNNE	≤ 0.2
TWYA	≤ 0.2
FKYS	≤ 0.2
SFPH	≤ 0.2
ARVR	≤ 0.2
FHID	≤ 0.2
CCRG	≤ 0.2
LAQL	≤ 0.2

Variant	one-hybrid fitness for binding NBS DNA
PWGV	≤ 0.2
IHRA	≤ 0.2
VGAL	≤ 0.2
GPSS	≤ 0.2
WVRP	≤ 0.2
STQC	≤ 0.2
TRGT	0.283
NQTW	≤ 0.2
YKFG	≤ 0.2
VYEA	≤ 0.2
WNNE	≤ 0.2
NHPH	≤ 0.2
RGCT	≤ 0.2
DAYT	≤ 0.2
PNGG	≤ 0.2
GLQN	≤ 0.2
QDNE	≤ 0.2
ARYS	≤ 0.2
GGHP	≤ 0.2
AKDA	≤ 0.2
MLCC	≤ 0.2
SSVI	≤ 0.2
TSGA	≤ 0.2
RLIY	≤ 0.2

Variant	one-hybrid fitness for binding NBS DNA
TRGL	≤ 0.2
KSID	≤ 0.2
HPLV	≤ 0.2
LIIM	≤ 0.2
MVVG	≤ 0.2
TGHA	≤ 0.2
GHER	≤ 0.2
QYAT	0.427
RIAM	≤ 0.2
EDRT	≤ 0.2
QFDS	≤ 0.2
GHAS	≤ 0.2
VSTI	≤ 0.2
HAGL	≤ 0.2
ATAR	≤ 0.2
TRHQ	≤ 0.2
KNHK	≤ 0.2
TMPG	≤ 0.2
SHNC	≤ 0.2
SMRH	≤ 0.2
QFQT	0.243
PFMR	≤ 0.2
YIES	≤ 0.2
VIHT	≤ 0.2

Variant	one-hybrid fitness for binding NBS DNA
QAGT	0.37
DKDR	≤ 0.2
ERVL	≤ 0.2
QRQA	0.611
NGGS	≤ 0.2
TTQT	≤ 0.2
TRRR	0.682
TEYG	≤ 0.2
VCGS	≤ 0.2
NSHM	≤ 0.2
PLFC	≤ 0.2
QETR	≤ 0.2
MTYG	≤ 0.2
DHVS	≤ 0.2
ADIK	≤ 0.2
VTWV	≤ 0.2
PCAS	≤ 0.2
GNTG	≤ 0.2
RQMS	0.297
RQVN	≤ 0.2
YEHN	≤ 0.2
SQYR	≤ 0.2
GPMS	≤ 0.2
VQCT	≤ 0.2

Variant	one-hybrid fitness for binding NBS DNA
CIKW	≤ 0.2
EKCM	≤ 0.2
DRRN	≤ 0.2
QITS	0.283
RLRE	≤ 0.2
PLPR	≤ 0.2
DHVG	≤ 0.2
PHVL	≤ 0.2
FLWS	≤ 0.2
SMRK	≤ 0.2
RHKV	0.203
NNES	≤ 0.2
SNTC	≤ 0.2
YSRF	≤ 0.2
TYHP	≤ 0.2
PIEP	≤ 0.2
QTAI	≤ 0.2
SQLV	≤ 0.2
RVPW	≤ 0.2
RVFL	≤ 0.2
GLIC	≤ 0.2
ATKR	0.286
HRNL	≤ 0.2
RWEC	≤ 0.2

Variant	one-hybrid fitness for binding NBS DNA
YHPP	≤ 0.2
RTIL	≤ 0.2
VDKR	≤ 0.2
GATA	≤ 0.2
RCVY	≤ 0.2
VRHH	≤ 0.2
LIGM	≤ 0.2
TRML	≤ 0.2
CHTC	≤ 0.2
SQDR	≤ 0.2
FTEY	≤ 0.2
MGKN	≤ 0.2
LSIA	≤ 0.2
ANTT	≤ 0.2
NKYH	≤ 0.2
EVNS	≤ 0.2
CSKS	≤ 0.2
AIPD	≤ 0.2
VNEA	≤ 0.2
RMGN	≤ 0.2
CRCG	≤ 0.2
MVQL	≤ 0.2
DTNK	≤ 0.2
TKIS	≤ 0.2

Variant	one-hybrid fitness for binding NBS DNA
NNTS	≤ 0.2
YNPS	≤ 0.2
AIRG	≤ 0.2
YLGV	≤ 0.2
NHTW	≤ 0.2
IATQ	≤ 0.2
GAWR	≤ 0.2
IHVA	≤ 0.2
RGND	≤ 0.2
MTSI	≤ 0.2
MWNR	≤ 0.2
QHHR	0.571
VQKT	≤ 0.2
LCPC	≤ 0.2
GKYR	≤ 0.2
QKAA	0.319
HICM	≤ 0.2
HTKC	≤ 0.2
CRQG	≤ 0.2
ITNW	≤ 0.2
TYTG	≤ 0.2
NERW	≤ 0.2
LFLL	≤ 0.2
GVVT	≤ 0.2

Variant	one-hybrid fitness for binding NBS DNA
SEKT	≤ 0.2
VHKY	≤ 0.2
VYSL	≤ 0.2
DSIE	≤ 0.2
VNPM	≤ 0.2
DWFR	≤ 0.2
CTKA	≤ 0.2
VGFF	≤ 0.2
PTQC	≤ 0.2
CSSD	≤ 0.2
VRNA	≤ 0.2
ATHF	≤ 0.2
LRGY	≤ 0.2
TNLI	≤ 0.2
QFCY	≤ 0.2
MADN	≤ 0.2
YVHC	≤ 0.2
LPES	≤ 0.2
YTLF	≤ 0.2
SGLW	≤ 0.2
AATK	≤ 0.2
CWAL	≤ 0.2
DTMR	≤ 0.2
SCMF	≤ 0.2

Variant	one-hybrid fitness for binding NBS DNA
DKRS	≤ 0.2
LMGY	≤ 0.2
RFVV	≤ 0.2
KSNW	≤ 0.2
CMIR	≤ 0.2
YYWF	≤ 0.2
DAWY	≤ 0.2
CIPS	≤ 0.2
QAQH	0.205
DTTK	≤ 0.2
VAYL	≤ 0.2
KGFW	≤ 0.2
PHIT	≤ 0.2
AKKW	≤ 0.2
TAVL	≤ 0.2
RVKK	≤ 0.2
QHTI	≤ 0.2
CLCW	≤ 0.2
GHRY	≤ 0.2
RYYR	0.404
CEKV	≤ 0.2
HTYD	≤ 0.2
VRVS	≤ 0.2
HLYT	≤ 0.2

Variant	one-hybrid fitness for binding NBS DNA
VRNT	0.374
MASD	≤ 0.2
NYCV	≤ 0.2
SPLG	≤ 0.2
QYGW	≤ 0.2
NCNI	≤ 0.2
LTPC	≤ 0.2
GTST	≤ 0.2
SSCT	≤ 0.2
GWNV	≤ 0.2
AAMP	≤ 0.2
KTVC	≤ 0.2
EEGG	≤ 0.2
CDLE	≤ 0.2
GIQG	≤ 0.2
IVKT	≤ 0.2
MSMV	≤ 0.2
QMTW	≤ 0.2
RLHA	≤ 0.2
PCHR	≤ 0.2
TRKI	≤ 0.2
TEPM	≤ 0.2
THRY	≤ 0.2
DPYC	≤ 0.2

Variant	one-hybrid fitness for binding NBS DNA
TEDF	≤ 0.2
CPDH	≤ 0.2
VILL	≤ 0.2
QRRG	0.483
LKRY	≤ 0.2
ARQK	≤ 0.2
RCSI	≤ 0.2
VNDG	≤ 0.2
RVWK	≤ 0.2
PRFF	≤ 0.2
NTIG	≤ 0.2
RTPC	≤ 0.2
WKRF	≤ 0.2
VFDR	≤ 0.2
EMRI	≤ 0.2
QIPP	≤ 0.2
NDMA	≤ 0.2
QMPP	≤ 0.2
YKYL	≤ 0.2
SSYC	≤ 0.2
NIKR	≤ 0.2
AEDG	≤ 0.2
WSNE	≤ 0.2
WMLT	≤ 0.2

Variant	one-hybrid fitness for binding NBS DNA
CAVR	≤ 0.2
PPMI	≤ 0.2
LFDR	≤ 0.2
LGGF	≤ 0.2
HNHT	≤ 0.2
SINY	≤ 0.2
YHQS	≤ 0.2
QCSV	≤ 0.2
IRNQ	≤ 0.2
IVES	≤ 0.2
EQPV	≤ 0.2
KKNC	≤ 0.2
RNRG	≤ 0.2
QCFS	0.397
MNLN	0.306
VNCV	≤ 0.2
GYWS	≤ 0.2
PHTT	≤ 0.2
QYVR	0.381
RGLH	≤ 0.2
WTTV	≤ 0.2
RFQP	≤ 0.2
VENT	≤ 0.2
AFNV	≤ 0.2

Variant	one-hybrid fitness for binding NBS DNA
CGQS	≤ 0.2
LITV	≤ 0.2
SVVS	≤ 0.2
SGYI	≤ 0.2
HFVL	≤ 0.2
YLWS	≤ 0.2
RGGN	≤ 0.2
CRHL	≤ 0.2
PKYC	≤ 0.2
KATC	≤ 0.2
AEKN	≤ 0.2
QCVA	0.298
GFCR	≤ 0.2
RECT	≤ 0.2
QLLR	0.415
HINQ	≤ 0.2
EMGT	≤ 0.2
QTPP	≤ 0.2
